Read-outs that look alike come from different tables or passages of the source. One block for each binder: values may come before it.
Experiments:
[1] = molecular target: GCN4-S; test: two-hybrid library CCNG1;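 further: natural log of median RNA to DNA barcode read ratio; higher means stronger binding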
[2] = molecular target: T1, AP1-AA; test: two-hybrid library CCmax;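 further: natural log of median RNA to DNA barcode read ratio; higher means stronger binding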
T1 chain: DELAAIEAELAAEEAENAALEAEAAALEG

[3] = molecular target: T2, AP2-AA; test: two-hybrid library CCmax;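 further: natural log of median RNA to DNA barcode read ratio; higher means stronger binding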
T2 chain: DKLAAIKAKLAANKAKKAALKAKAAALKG

[4] = molecular target: T3, AP3-AA; test: two-hybrid library CCmax;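 further: natural log of median RNA to DNA barcode read ratio; higher means stronger binding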
T3 chain: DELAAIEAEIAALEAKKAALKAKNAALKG

[5] = molecular target: T4, AP4-AA; test: two-hybrid library CCmax
T4 chain: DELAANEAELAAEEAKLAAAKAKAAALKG

[6] = molecular target: T5, AP5-AA; test: two-hybrid library CCmax; settings: mean of both orientations
T5 chain: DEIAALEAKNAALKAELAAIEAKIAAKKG

[7] = molecular target: T6, AP6-AA; test: two-hybrid library CCmax
T6 chain: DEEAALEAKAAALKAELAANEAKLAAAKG

[8] = molecular target: T7, AP7-AA; test: two-hybrid library CCmax
T7 chain: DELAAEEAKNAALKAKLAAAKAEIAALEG

[9] = molecular target: T8, AP8-AA; test: two-hybrid library CCmax
T8 chain: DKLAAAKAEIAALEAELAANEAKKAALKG

[10] = molecular target: GCN2_T; test: two-hybrid library CCmax
[11] = molecular target: T9, O11-AA; test: two-hybrid library CCmax
T9 chain: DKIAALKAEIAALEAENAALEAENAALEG

[12] = molecular target: T10, O13-AA; test: two-hybrid library CCmax; settings: mean of both orientations
T10 chain: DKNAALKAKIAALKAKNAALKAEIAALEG

[13] = molecular target: T11, O14-AA; test: two-hybrid library CCmax
T11 chain: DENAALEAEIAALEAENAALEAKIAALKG

[14] = molecular target: T12, P1-AA; test: two-hybrid library CCmax
T12 chain: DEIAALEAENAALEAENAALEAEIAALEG

[15] = molecular target: T13, P10-AA; test: two-hybrid library CCmax
T13 chain: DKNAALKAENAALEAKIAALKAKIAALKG

[16] = molecular target: T14, P11-AA; test: two-hybrid library CCmax
T14 chain: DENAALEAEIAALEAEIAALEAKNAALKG

[17] = molecular target: T15, P12-AA; test: two-hybrid library CCmax
T15 chain: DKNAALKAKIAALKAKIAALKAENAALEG

[18] = molecular target: T16, P2-AA; test: two-hybrid library CCmax
T16 chain: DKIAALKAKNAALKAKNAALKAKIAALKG

[19] = molecular target: T17, P3-AA; test: two-hybrid library CCmax
T17 chain: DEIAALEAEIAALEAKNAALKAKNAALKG

[20] = molecular target: T18, P4-AA; test: two-hybrid library CCmax
T18 chain: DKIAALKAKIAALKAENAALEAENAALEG

[21] = molecular target: T19, P7-AA; test: two-hybrid library CCmax
T19 chain: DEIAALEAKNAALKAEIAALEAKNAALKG

[22] = molecular target: T20, P8-AA; test: two-hybrid library CCmax
T20 chain: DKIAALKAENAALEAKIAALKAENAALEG

[23] = molecular target: T21, P9-AA; test: two-hybrid library CCmax
T21 chain: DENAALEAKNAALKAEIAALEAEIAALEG

[24] = molecular target: T22, zCON9_A; test: two-hybrid library CCmax
T22 chain: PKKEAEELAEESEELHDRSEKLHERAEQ

[25] = molecular target: T23, zCON9_B; test: two-hybrid library CCmax; settings: mean of both orientations
T23 chain: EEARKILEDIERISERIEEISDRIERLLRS

[26] = molecular target: T24, zCON9_D; test: two-hybrid library CCmax
T24 chain: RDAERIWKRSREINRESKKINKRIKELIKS

[27] = molecular target: GCN2_TK; test: two-hybrid library CCmax
[28] = molecular target: GCN4-SN; test: two-hybrid library CCNG1
[29] = molecular target: GCN4-SN; test: two-hybrid library CCmax

B2: 4H_GCN4 (peptide)
chain: QLEDKIEELLSKNYHLENEIARLKKLIG
- interaction score [2]: -2.19
- interaction score [3]: -2.37
- interaction score [4]: -2.07
- interaction score [5]: -2.11
- interaction score [6]: 0.704
- interaction score [7]: -1.68
- interaction score [8]: -2.02
- interaction score [9]: -2.7
- interaction score [10]: -2.01
- interaction score [11]: -2.12
- interaction score [12]: -1.4
- interaction score [13]: -0.609
- interaction score [14]: -1.57
- interaction score [15]: -1.25
- interaction score ([16]; mean of both orientations): -0.988
- interaction score [17]: -2.08
- interaction score [18]: -1.86
- interaction score [19]: -1.56
- interaction score [20]: -1.93
- interaction score [21]: -0.689
- interaction score ([22]; mean of both orientations): -1.41
- interaction score [23]: -1.6
- interaction score [24]: -1.53
- interaction score [25]: 0.379
- interaction score [26]: -1.77

B3: GCN2_TK (peptide)
chain: KQLEDKVEELLRKNYHLENEVERLKKLVG
- interaction score [27]: -0.172

B4: GCN2_T (peptide)
chain: QLEDKVEELLRKNYHLENEVERLKKLVG
- interaction score [10]: -1.72
- interaction score [11]: -2
- interaction score [12]: -0.908
- interaction score [14]: -2.26
- interaction score ([15]; mean of both orientations): -2.08
- interaction score [16]: -0.724
- interaction score [17]: -1.65
- interaction score [18]: -1.79
- interaction score [19]: -1.11
- interaction score ([20]; mean of both orientations): -1.9
- interaction score ([21]; mean of both orientations): -0.868
- interaction score [22]: -1.3
- interaction score [23]: -1.74
- interaction score [25]: 0.172
- interaction score [26]: -1.86

The next lines start with the values.

- interaction score [1]: -2.49
B1: GCN4-S (peptide)
chain: QLEDKVEELLSKNYHLENEVSRLKKLVG

- interaction score [28]: -2.31
- interaction score [29]: -1.38
B5: GCN4-SN (peptide)
chain: QLEDKVEELLSKNYHLENEVERLKKLVG
